According to PubChem BioAssay AID1347165 (National Center for Advancing Translational Sciences (NCATS), 2019):
In all, about 220,000 compounds went through this assay and about 5,700 (2.6%) were called active. This list was built around the results that the source calls inconclusive (neither active nor inactive); the mix of calls is not that of the screen. Calls follow the shape of the dose curve; as a rule, active = well fitted inhibition curve with a large enough effect; inconclusive = small, poorly fitted or top-dose-only effect; inactive = no such curve, though single readings can be large or run the other way. A potency beside an inconclusive call is a rough fit, not a confirmed value.

What follows are molecules tested against Lysine-specific demethylase 5B (Homo sapiens) (UniProt Q9UGL1) (assay: Primary screen for KDM5B Histone Demethylases FDH-coupled qHTS). Conditions: FDH-coupled NADH fluorescence (FDH is formaldehyde dehydrogenase); activity change, negative = inhibition: at 57.7 µM (top of the series) unless noted.
Outline: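 Here, H3K4me3 peptide (12.5 µM in substrate mix) is demethylated by KDM5BΔAP, 200 nM final, after 10 min compound exposure. Formaldehyde product is coupled through FDH (0.25 U/mL in mix) to NADH fluorescence; 30-min ΔRFU feeds dose-response curves.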
Also: nearly all actives have a fitted effect of over 70% in size.
For activity change, negative = inhibition in this document: 0% is about no effect.
Potency is read from the fitted curve at half-maximal effect; tags tell the direction and shape of the fitted curve.

Sequence of UniProt Q9UGL1 (Q9UGL1 whole entry, looked up): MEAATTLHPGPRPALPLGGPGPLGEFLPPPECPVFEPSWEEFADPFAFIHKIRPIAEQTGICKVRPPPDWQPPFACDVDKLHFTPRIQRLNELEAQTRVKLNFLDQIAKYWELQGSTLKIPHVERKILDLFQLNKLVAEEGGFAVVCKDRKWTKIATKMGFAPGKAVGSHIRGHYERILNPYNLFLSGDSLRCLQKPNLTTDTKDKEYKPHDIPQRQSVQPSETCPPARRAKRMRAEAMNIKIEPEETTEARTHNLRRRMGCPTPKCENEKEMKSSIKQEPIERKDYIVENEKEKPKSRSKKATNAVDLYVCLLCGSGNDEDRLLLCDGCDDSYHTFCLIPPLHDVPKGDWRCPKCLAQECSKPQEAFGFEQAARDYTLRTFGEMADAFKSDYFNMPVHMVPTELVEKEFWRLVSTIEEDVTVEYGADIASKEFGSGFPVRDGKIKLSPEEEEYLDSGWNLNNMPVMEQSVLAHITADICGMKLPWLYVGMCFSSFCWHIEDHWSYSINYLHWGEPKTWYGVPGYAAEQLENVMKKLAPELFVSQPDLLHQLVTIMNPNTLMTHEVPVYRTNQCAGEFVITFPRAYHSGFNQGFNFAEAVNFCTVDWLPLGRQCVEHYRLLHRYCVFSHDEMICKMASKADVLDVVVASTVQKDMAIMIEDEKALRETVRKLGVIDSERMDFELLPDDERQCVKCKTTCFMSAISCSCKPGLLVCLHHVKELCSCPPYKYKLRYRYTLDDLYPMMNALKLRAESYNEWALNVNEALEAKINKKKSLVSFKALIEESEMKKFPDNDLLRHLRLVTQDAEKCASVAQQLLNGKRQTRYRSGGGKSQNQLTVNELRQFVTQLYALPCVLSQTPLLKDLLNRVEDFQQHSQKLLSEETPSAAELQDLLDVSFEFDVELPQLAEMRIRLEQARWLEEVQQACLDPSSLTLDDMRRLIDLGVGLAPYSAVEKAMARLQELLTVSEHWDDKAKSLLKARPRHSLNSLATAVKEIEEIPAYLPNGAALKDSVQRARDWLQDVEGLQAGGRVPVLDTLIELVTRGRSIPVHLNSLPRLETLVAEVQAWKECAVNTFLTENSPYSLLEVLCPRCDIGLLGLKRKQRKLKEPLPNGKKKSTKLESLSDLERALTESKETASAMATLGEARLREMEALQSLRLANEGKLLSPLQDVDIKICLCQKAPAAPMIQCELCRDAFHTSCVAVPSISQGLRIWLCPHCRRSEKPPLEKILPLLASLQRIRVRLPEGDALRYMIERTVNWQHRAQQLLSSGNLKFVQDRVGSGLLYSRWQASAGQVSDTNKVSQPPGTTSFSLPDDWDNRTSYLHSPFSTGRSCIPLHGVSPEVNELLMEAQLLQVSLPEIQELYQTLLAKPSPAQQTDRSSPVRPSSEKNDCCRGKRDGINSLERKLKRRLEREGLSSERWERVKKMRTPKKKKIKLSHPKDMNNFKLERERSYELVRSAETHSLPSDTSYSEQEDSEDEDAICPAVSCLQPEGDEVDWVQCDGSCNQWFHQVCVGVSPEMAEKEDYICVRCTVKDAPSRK

SMILES	Potency	activity change, negative = inhibition
CN(C)C(=O)c1cc2cccnn2n1	active: 31.6 µM	
CC(=O)Nc1ccc(-c2nc3cc(Cl)ccc3o2)cc1	inconclusive: 3.98 µM [inhibitor, full curve, poor fit]	
O=C1CCSc2ccc(C(=O)NNC(=O)c3ccccn3)cc2N1	inconclusive: 39.8 µM [inhibitor, partial curve, poor fit]	
O=c1[nH]c(CN(Cc2cccs2)CC2CCCO2)nc2scc(-c3ccco3)c12 (stereo not drawn)	inconclusive: 22.4 µM [inhibitor, single point]	
Cc1noc([C@@H]2CN(C(=O)c3cc(C)oc3C)C[C@H]2COCC2CC2)n1		inactive: -4.33%
CCc1cccc(C)c1NC(=O)c1cc(S(=O)(=O)NCc2ccccc2Cl)ccc1F		inconclusive: -30.2% [inhibitor]
CCCn1c2ccccc2c2cnn(CC(=O)N(C)c3ccccc3CC)c(=O)c21	inconclusive: 15.8 µM [inhibitor, partial curve, poor fit]	
O=c1c(N2CCN(Cc3ccccc3)CC2)csc2ccc(Br)cc12	inconclusive: 28.2 µM [inhibitor, single point]	
Cc1ccc(Oc2nc3ccccn3c(=O)c2/C=C(\C#N)C(=O)NC2CCS(=O)(=O)C2)cc1 (stereo not drawn)	inconclusive: 25.1 µM [inhibitor, single point]	
C/C(Cl)=C\Cc1c(C)nc2c(C)cccc2c1Cl		inactive: 18.3%
CC(=O)NC1(C)CN(Cc2ccc(-c3ccccc3OCc3ccccc3)s2)C1	inconclusive: 39.8 µM [inhibitor, single point]	
O=C1NCCN2CC3(CCN(C(=O)c4cnccn4)CC3)CC12 (stereo not drawn)	inconclusive: 12.6 µM [inhibitor, partial curve]	
Cc1nn(-c2ccccc2)nc1C(=O)N[C@H](C)c1onc(-c2cccnc2)c1C(=O)O	active: 25.1 µM	
C/C(=N/NC(=O)c1ccc(C)cc1)C(C)(C)C		inactive: 9.44%
O=C(CCC1N=C2c3ccccc3N=C(SCc3ccc(Cl)cc3)N2C1=O)NCCc1ccccc1 (stereo not drawn)	inconclusive: 28.2 µM [inhibitor, partial curve, poor fit]	
COCCN1C(=O)Cc2ccccc2C1C(=O)NCc1ccccc1 (stereo not drawn)	inconclusive: 14.1 µM [inhibitor, partial curve, poor fit]	
CC(=O)N[C@@H]1C=C(C(=O)NCCC(N)=O)C[C@@H](O)[C@@H]1O	inconclusive: 35.5 µM [inhibitor, partial curve, poor fit]	
O=C(CN1C(=O)CNC1=O)N1CCCC(Nc2ccc3c(c2)OCO3)C1 (stereo not drawn)	inconclusive: 8.91 µM [inhibitor, partial curve]	
